# PubChem BioAssay (Tox21)
# The inconclusive results got no clear call from the source; some entries with a clear call stand among them for comparison. For part of these data: Where the call is inconclusive, the potency comes from a doubtful curve fit. Active and inactive are the calls of the source. Unless noted, calls follow the shape of the dose curve; as a rule, active = well fitted curve in the direction sought with a large enough effect in the repeat runs; inconclusive = weak or mixed curves; inactive = no such curve, though single readings can be large; an effect the other way counts as inactive or inconclusive.
# Assays:
# [1] = target: Progesterone receptor (Homo sapiens) (UniProt P06401); experiment: qHTS assay to identify small molecule antagonists of the progesterone receptor (PR) signaling pathway (AID 1346795; active = well fitted inhibition curve with a large enough effect in the signal ratio in the repeat runs, not every such curve was filed as active; inconclusive = weak or mixed curves; the % refers to the signal ratio; as to activity change, negative = inhibition: % is scaled to controls: 0 for no effect and ±100 for the full control effect); conditions: PR-UAS-bla HEK293T, beta-lactamase FRET ratio, 16 h; activity change, negative = inhibition: at 92.4 µM (top of the series) unless noted
# Sequence of UniProt P06401 (P06401 whole entry, looked up): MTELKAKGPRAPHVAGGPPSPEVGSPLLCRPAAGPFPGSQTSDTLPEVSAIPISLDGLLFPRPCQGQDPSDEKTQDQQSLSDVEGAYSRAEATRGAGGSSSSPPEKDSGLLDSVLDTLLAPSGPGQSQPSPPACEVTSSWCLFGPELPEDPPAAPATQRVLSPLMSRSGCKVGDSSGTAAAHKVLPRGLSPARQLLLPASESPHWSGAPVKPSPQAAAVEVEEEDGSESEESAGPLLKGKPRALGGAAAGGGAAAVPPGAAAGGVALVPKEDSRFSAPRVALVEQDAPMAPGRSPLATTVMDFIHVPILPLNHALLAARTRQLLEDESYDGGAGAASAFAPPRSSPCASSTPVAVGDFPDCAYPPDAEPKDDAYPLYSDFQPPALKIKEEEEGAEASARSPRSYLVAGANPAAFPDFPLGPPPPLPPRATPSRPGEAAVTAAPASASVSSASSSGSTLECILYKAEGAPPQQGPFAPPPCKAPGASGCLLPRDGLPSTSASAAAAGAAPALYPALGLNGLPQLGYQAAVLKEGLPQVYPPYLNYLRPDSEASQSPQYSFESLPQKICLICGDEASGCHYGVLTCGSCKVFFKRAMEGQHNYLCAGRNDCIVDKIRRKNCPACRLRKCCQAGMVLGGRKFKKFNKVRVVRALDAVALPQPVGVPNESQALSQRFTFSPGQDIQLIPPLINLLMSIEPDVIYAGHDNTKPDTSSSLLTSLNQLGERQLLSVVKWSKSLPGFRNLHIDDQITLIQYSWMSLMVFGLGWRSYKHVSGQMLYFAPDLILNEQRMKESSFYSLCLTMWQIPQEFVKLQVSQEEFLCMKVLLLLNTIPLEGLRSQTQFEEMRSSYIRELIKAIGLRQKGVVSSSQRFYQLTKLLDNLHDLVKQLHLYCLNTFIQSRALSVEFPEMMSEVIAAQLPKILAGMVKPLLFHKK
# How it was run: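 Fluorescence intensity measured 2 hr after adding beta-lactamase FRET substrate to PR-UAS-bla HEK293T cells that had been co-treated 16 hr with compound and 1 nM R5020 (final concentration) in 2% charcoal-stripped FBS.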
# [2] = qHTS assay to identify small molecule antagonists of the progesterone receptor (PR) signaling pathway - cell viability counter screen (AID 1346798); also: nearly all actives have a fitted effect of over 50% in size
# How it was run: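 CellTiter-Glo luminescence; PR-UAS-bla HEK293T, 3,000 cells/well; compound + R5020, 16 hr, 37C/5% CO2; 30 min RT before read.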
# [3] = qHTS assay to identify small molecule agonists of the progesterone receptor (PR) signaling pathway - cell viability counter screen (AID 1346799; calls by dose curve; also: nearly all actives have a fitted effect of over 45% in size)
# How it was run: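 In parallel with the beta-lactamase readout, cytotoxicity toward PR-UAS-bla HEK293T cells was measured by CellTiter-Glo luminescence following 16 hr compound incubation in 2% charcoal-stripped FBS medium.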
# [4] = target: Nuclear receptor subfamily 1 group I member 2 (Homo sapiens) (UniProt O75469); experiment: Human pregnane X receptor (PXR) small molecule agonists, qHTS assay (AID 1346982); also: nearly all actives have a fitted effect of over 35% in size
# Sequence of UniProt O75469 (O75469 whole entry, looked up): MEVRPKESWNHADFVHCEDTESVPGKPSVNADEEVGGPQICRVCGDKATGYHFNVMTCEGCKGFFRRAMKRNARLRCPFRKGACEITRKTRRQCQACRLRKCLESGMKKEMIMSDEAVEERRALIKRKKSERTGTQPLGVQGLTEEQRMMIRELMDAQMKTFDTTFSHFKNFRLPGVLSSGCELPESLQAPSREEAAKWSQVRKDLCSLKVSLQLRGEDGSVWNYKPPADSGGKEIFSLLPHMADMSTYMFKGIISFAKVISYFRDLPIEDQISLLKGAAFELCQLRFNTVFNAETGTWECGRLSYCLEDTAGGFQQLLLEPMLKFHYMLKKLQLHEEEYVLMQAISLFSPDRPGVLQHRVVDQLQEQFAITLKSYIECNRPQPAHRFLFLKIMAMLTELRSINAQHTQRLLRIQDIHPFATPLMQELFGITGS
# How it was run: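 Agonist mode qHTS: PXR-Luc HepG2 cells plated 5 hr before DMSO-dissolved compounds were pinned in, cultured 24 hr at 37 C, 5% CO2; ONE-Glo luminescence readout.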
# [5] = Caspase-3/7 induction in HepG2 cells by small molecules, qHTS cell viability counter screen (AID 1346981); also: nearly all actives have a fitted effect of over 30% in size
# How it was run: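 Steps: seed 2,000 HepG2 cells per well; incubate 5 hr at 37 C; pin-add compounds in DMSO; incubate 16 hr; add CellTiter-Fluor; after 1 hr at 37 C and 5% CO2, read fluorescence.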
# [6] = target: Cytochrome P450 2D6 (Homo sapiens) (UniProt P10635); experiment: Cytochrome P450 Family 2 Subfamily D Member 6 (CYP2D6) small molecule antagonists: luciferase reporter qHTS assay (AID 1671196); also: nearly all actives have a fitted effect of over 50% in size
# Sequence of UniProt P10635 (P10635 whole entry, looked up): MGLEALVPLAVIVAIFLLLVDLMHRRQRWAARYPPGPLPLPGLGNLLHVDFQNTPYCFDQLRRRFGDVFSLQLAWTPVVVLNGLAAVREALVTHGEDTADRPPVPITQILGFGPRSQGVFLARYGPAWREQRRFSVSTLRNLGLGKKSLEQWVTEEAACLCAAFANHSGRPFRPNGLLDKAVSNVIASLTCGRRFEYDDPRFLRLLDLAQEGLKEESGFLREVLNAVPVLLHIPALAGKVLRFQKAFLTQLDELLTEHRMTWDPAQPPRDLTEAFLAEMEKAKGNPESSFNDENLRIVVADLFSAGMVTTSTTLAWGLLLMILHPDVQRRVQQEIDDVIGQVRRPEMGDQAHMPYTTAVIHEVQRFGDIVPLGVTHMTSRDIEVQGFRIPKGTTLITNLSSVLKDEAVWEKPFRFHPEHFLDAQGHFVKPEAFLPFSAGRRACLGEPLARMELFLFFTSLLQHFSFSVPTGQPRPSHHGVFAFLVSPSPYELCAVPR
# How it was run: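 P450-Glo format: CYP2D6 converts a proluciferin substrate to luciferin in an NADPH-driven reaction lasting 1 h at room temperature. Light output, proportional to CYP2D6 activity, reflects interference by test chemicals.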
# [7] = target: Cytochrome P450 2C19 (Homo sapiens) (UniProt P33261); experiment: Cytochrome P450 Family 2 Subfamily C Member 19 (CYP2C19) small molecule antagonists: luciferase reporter qHTS assay (AID 1671197); also: nearly all actives have a fitted effect of over 65% in size
# Sequence of UniProt P33261 (P33261 whole entry, looked up): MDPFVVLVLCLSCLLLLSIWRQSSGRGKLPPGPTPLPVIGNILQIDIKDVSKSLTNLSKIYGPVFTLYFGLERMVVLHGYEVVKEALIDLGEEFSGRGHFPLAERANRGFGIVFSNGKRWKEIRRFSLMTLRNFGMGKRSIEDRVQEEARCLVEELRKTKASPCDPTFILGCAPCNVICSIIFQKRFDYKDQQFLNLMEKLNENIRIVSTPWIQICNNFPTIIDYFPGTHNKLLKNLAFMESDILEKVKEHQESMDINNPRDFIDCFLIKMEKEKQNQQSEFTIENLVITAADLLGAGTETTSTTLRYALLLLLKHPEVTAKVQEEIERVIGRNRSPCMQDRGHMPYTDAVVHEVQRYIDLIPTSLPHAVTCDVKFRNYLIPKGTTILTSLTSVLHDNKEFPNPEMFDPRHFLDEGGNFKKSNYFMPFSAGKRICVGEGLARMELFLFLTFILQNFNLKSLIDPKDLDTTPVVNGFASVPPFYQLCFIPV
# How it was run: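 Inhibition of CYP2C19 was scored from loss of luminescence in a P450-Glo proluciferin substrate assay, NADPH-started and run 1 h at 37C, with ketoconazole as positive control.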
# [8] = Caspase-3/7 induction in CHO-K1 cells by small molecules, qHTS assay (AID 1346980); also: nearly all actives have a fitted effect of over 15% in size
# How it was run: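 Wild-type CHO-K1 cells exposed to compounds for 17hr at 37 C, 5% CO2. Caspase-3/7 activity then measured by Caspase-Glo 3/7 luminescence after 30min at room temperature.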
# [9] = target: Nuclear receptor subfamily 1 group I member 2 (Rattus norvegicus) (UniProt Q9R1A7); experiment: Rat pregnane X receptor (rPXR) activation by small molecules, qHTS assay (AID 1346983); conditions: rPXR luciferase reporter cells, One-Glo luminescence, 24 h; max activation: hits give high values; also: nearly all actives have a fitted effect of over 20% in size
# Sequence of UniProt Q9R1A7 (Q9R1A7 whole entry, looked up): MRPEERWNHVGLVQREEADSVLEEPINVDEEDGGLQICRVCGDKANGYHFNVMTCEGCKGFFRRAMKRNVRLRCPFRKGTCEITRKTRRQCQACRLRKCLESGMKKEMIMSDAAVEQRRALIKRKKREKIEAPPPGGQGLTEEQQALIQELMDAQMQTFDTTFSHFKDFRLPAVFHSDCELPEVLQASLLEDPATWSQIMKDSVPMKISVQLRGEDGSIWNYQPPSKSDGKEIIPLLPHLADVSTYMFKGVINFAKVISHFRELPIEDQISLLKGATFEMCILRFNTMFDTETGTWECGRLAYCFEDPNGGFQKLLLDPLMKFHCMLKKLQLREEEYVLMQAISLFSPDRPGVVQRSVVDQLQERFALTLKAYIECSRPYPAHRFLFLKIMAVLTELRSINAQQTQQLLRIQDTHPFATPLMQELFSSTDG
# How it was run: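 Cell-based rPXR activation assay: rPXR cells, 2,000 per well, rested 5hr at 37 C, then exposed to compounds in DMSO for 24 hr at 37 C. Luciferase activity read by One-Glo luminescence after 30 min at room temperature.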
# [10] = target: Cytochrome P450 2C9 (Homo sapiens) (UniProt P11712); experiment: Cytochrome P450 Family 2 Subfamily C Member 9 (CYP2C9) small molecule antagonists: luciferase reporter qHTS assay (AID 1671198); also: nearly all actives have a fitted effect of over 50% in size
# Sequence of UniProt P11712 (P11712 whole entry, looked up): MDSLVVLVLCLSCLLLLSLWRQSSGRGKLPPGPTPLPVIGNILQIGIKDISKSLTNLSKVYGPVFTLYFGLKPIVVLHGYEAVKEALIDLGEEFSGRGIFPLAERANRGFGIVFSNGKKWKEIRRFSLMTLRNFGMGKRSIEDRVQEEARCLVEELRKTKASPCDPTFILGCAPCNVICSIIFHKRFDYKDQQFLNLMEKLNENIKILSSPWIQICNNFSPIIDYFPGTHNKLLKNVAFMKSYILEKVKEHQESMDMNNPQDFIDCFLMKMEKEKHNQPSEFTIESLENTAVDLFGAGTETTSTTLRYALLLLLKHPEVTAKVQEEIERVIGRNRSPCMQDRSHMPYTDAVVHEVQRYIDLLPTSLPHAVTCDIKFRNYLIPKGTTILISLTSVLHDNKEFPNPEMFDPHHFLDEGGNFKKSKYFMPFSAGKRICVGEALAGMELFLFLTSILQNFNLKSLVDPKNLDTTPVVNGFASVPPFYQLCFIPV
# How it was run: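 P450-Glo proluciferin substrate with CYP2C9 enzyme; 10 min RT preincubation, then NADPH regeneration 1 h at 37C; luciferin detection reagent 20 min RT, luminescence in relative luminescence units.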
# Potency is read from the fitted curve at half-maximal effect; tags tell the direction and shape of the fitted curve.
smiles,measurement,setting,value
COc1c(C)c2c(c(O)c1C/C=C(\C)CCC(=O)OCCN1CCOCC1)C(=O)OC2,Potency,[1],inconclusive: 0.266 µM [full curve]
same,Potency,[2],"inconclusive: 0.422 µM [cytotoxic, full curve]"
same,Potency,[3],active: 0.237 µM
same,Potency,[4],"inconclusive: 3.35 µM [activator, partial curve]"
CN(C)C(=O)Nc1ccc(Oc2ccc(Cl)cc2)cc1,Potency,[1],active: 34.4 µM
same,Potency,[2],"inconclusive: 15.4 µM [rising, full curve]"
same,Potency,[3],"inconclusive: 19.3 µM [rising, partial curve]"
same,Potency,[5],"inconclusive: 43.3 µM [cytotoxic, partial curve]"
same,Potency,[6],"inconclusive: 28.3 µM [inhibitor, partial curve]"
same,Potency,[7],active: 17.8 µM
O=C(O)C[C@H](O)C[C@H](O)/C=C/c1c(C2CC2)nc2ccccc2c1-c1ccc(F)cc1,"activity change, negative = inhibition",[1],inconclusive: 13.9% [at 18.9 µM]
same,Potency,[2],"inconclusive: 2.59 µM [cytotoxic, full curve]"
same,Potency,[3],active: 0.651 µM
same,Potency,[8],active: 5.8 µM
same,Potency,[9],"inconclusive: 14.1 µM [activator, single point]"
same,Potency,[10],"inconclusive: 15.1 µM [inhibitor, partial curve]"
C=C(C)C(=O)OCCCCCCCCCC,Potency,[1],"inconclusive: 69.1 µM [falling, single point]"
same,Potency,[2],"inconclusive: 69.1 µM [cytotoxic, single point]"
same,Potency,[3],"inconclusive: 69.1 µM [cytotoxic, single point]"
same,Potency,[5],active: 61.6 µM
same,Potency,[10],"inconclusive: 40.2 µM [inhibitor, partial curve, poor fit]"
